About 18,000 (5.8%) of roughly 310,000 compounds were called active. The inconclusive results got no clear call from the source; some entries with a clear call stand among them for comparison. The call rests on the fitted dose curve; in most records, active means well fitted inhibition curve with a large enough effect; inconclusive means small, poorly fitted or top-dose-only effect, or another doubt; inactive means no such curve, though single readings can be large or run the other way. Potencies of inconclusive entries are left out as doubtful fits.
Assay: Primary qHTS for delayed death inhibitors of the malarial parasite plastid, 48 hour incubation
Details: P. falciparum luciferase growth in erythrocytes; series mostly up to 28.7 µM
Procedure, shortened: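 First compound was added to culture medium, then infected red cells at 0.1% parasitemia and 2% hematocrit (final). After incubation at 37 C under 5% CO2, luciferase detection reagent was dispensed and light output recorded.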
In the case of `CCc1ccc(Nc2ncc3c(n2)CC(c2ccc(OC)cc2)CC3=O)cc1` (stereo not drawn), the Potency is reported as inconclusive [inhibitor, single point]. In the case of `CC(=O)c1cc(C#N)c(N(C)Cc2ccccc2)nc1C`, the Potency is reported as “inactive”. With `Cc1cc(O)c(C(=O)/C=C/c2cccc([N+](=O)[O-])c2)c(=O)o1` the Potency was inconclusive [inhibitor, single point]. For `Cc1ccc(C2N=C(N)Nc3nc(=O)c4ccccc4n32)cc1` (stereo not drawn), the Potency was inconclusive [inhibitor, partial curve, poor fit]. With `O=C(CSCc1ccc([N+](=O)[O-])cc1)N/N=C/c1ccncc1` the Potency was inconclusive [inhibitor, partial curve, poor fit]. For `CCCC(CCC)C(=O)OC[N+](C)(C)CCOC(=O)C(O)(c1ccccc1)C1CCCC1` (stereo not drawn), the Potency was inconclusive [inhibitor, single point]. For `COC(C[C@@H]1O[C@@H]1C(=O)COCc1ccccc1)OC`, the Potency was “inactive”. For `C[C@H](NC(=O)c1nc[nH]c1C(=O)NCc1ccc(CNC(=O)OC(C)(C)C)cc1)C(=O)OC(C)(C)C`, the Potency was inconclusive [inhibitor, full curve]. With `COc1ccccc1-c1cc(C(=O)N/N=C/C=C/c2ccccc2[N+](=O)[O-])c2ccccc2n1` the Potency was inconclusive [inhibitor, single point]. For `CC(C)(O)C#Cc1ccc(CN2CCC(CO)(CCc3ccccc3)CC2)cc1`, the Potency was inconclusive [inhibitor, partial curve, poor fit]. In the case of `Cc1cc[n+]2c3c(cccc13)CCC2`, the Potency is reported as active: 3.7 µM. With `CC(=O)c1ccc(S(=O)(=O)N2CCn3cccc3C2C)cc1` (stereo not drawn) the Potency was “inactive”. For `C/C(=N\NC(=O)C1(C)CC1(Br)Br)c1ccc(NC(=O)c2ccc(C)o2)cc1` (stereo not drawn), the Potency was inconclusive [inhibitor, partial curve]. With `Cc1ccc(S(=O)(=O)N2CCCCC2)cc1NC(=O)C1CC(=O)N(Cc2ccccc2)C1` (stereo not drawn) the Potency was inconclusive [inhibitor, single point]. In the case of `O=C(CN(C(=O)c1ccccc1Cl)C1CCCCC1)Nc1ccc(Cl)c([N+](=O)[O-])c1`, the Potency is reported as active: 13.1 µM. For `CCOc1cc(CNc2ccc(Br)cc2)cc(Br)c1OCC(=O)NC(C)(C)C`, the Potency was inconclusive [inhibitor, partial curve, poor fit]. For `O=C(O)/C(=C\c1ccc(-c2ccc(F)cc2)o1)c1ccccc1`, the Potency was “inactive”. In the case of `CN(C)CCCN(Cc1cc2cc3c(cc2[nH]c1=O)OCO3)C(=S)Nc1ccccc1`, the Potency is reported as inconclusive [inhibitor, partial curve]. For `COCCN(C(=O)c1oc2ccccc2c1COC)c1c(N)n(CC(C)C)c(=O)[nH]c1=O`, the Potency was “inactive”. In the case of `Cc1cccc2cc(C(c3nnnn3CC3CCCO3)N3CCCC4(CCCCC4)C3)c(=O)[nH]c12` (stereo not drawn), the Potency is reported as inconclusive [inhibitor, full curve]. For `CN(C)S(=O)(=O)c1ccc(C(=O)Nc2ccc3c(c2)CCC3)cc1`, the Potency was “inactive”. For `O=C(NC(=O)N1CCN(c2ccccc2F)CC1)c1ccccc1`, the Potency was inconclusive [inhibitor, single point]. For `CC(=O)N(CCC(Cc1ccccc1)c1ccco1)Cc1ccco1` (stereo not drawn), the Potency was inconclusive [inhibitor, partial curve]. For `Cc1ccccc1NC(=O)c1ccc(NC(=O)C2CC(=O)OC23CCCCC3)cc1` (stereo not drawn), the Potency was active: 13.1 µM. For `COc1ccc(C(=O)NCCNc2nc3c(C)cccc3cc2C#N)cc1OC`, the Potency was “inactive”. With `CCOC(=O)c1cnc2ccc(C)cc2c1Nc1ccc(N2CCOCC2)cc1` the Potency was inconclusive [inhibitor, single point]. With `C#CCOCCOCCOCCNc1nc(N2CCN(C(=O)[C@H](CCC(=O)O)n3cc(C(N)CC(C)C)nn3)CC2)nc(N2CCN(C(=O)[C@H](Cc3ccc(O)cc3)n3cc(C(N)CC(C)C)nn3)CC2)n1` (stereo partly drawn) the Potency was inconclusive [inhibitor, single point]. With `CCOC(=O)C1=C(N)n2c(s/c(=C/c3ccco3)c2=O)=C(C(=O)OC)C1c1ccco1` (stereo not drawn) the Potency was active: 13.1 µM. In the case of `Cc1ccc(OCCNC(=O)CCNS(=O)(=O)c2ccc(C)cc2)cc1`, the Potency is reported as inconclusive [inhibitor, single point]. With `Cc1ccc(Oc2ccc(C(=O)NCc3ccncc3)cc2)cc1` the Potency was inconclusive [inhibitor, full curve, poor fit]. With `Cc1ccc(NC(=O)CSCC(=O)Nc2ccc(N3CCOCC3)c(Cl)c2)cc1` the Potency was inconclusive [inhibitor, full curve, poor fit]. In the case of `O=C(COc1ccccc1)Nc1ccc2oc(=O)ccc2c1`, the Potency is reported as “inactive”. With `COc1cnc(-c2ccccn2)nc1Oc1cccc(Cl)c1` the Potency was inconclusive [inhibitor, full curve]. With `CCOc1ccccc1OCC(=O)Nc1cc(S(=O)(=O)N2CCCCC2)ccc1OC` the Potency was inconclusive [inhibitor, single point]. With `CCOC(=O)c1ccc(NC2=CC(=O)CC(c3ccco3)C2)cc1` (stereo not drawn) the Potency was inconclusive [inhibitor, single point]. In the case of `S=C(Nc1cc(Cl)cc(Cl)c1)NC1CCN(Cc2ccccc2)CC1`, the Potency is reported as active: 5.86 µM. With `CCCCCn1ccc(=N)cc1` the Potency was active: 4.15 µM. With `COc1ccccc1OC(C)C(=O)Nc1ccc(S(=O)(=O)N2CCN(C)CC2)cc1` (stereo not drawn) the Potency was “inactive”. For `CCCCC(=O)NNC(=S)NCc1ccccc1`, the Potency was “inactive”. In the case of `CC1CCN(C(=O)CCCN2C(=O)c3cccnc3Oc3ccc(Cl)cc32)CC1`, the Potency is reported as inconclusive [inhibitor, full curve, poor fit]. With `Cc1ccc(CCN2CCN=C2Nc2ccccc2)cc1` the Potency was inconclusive [inhibitor, single point]. For `CC(C)(C)NC(=O)C(c1ccc(Cl)cc1)N(CCO)C(=O)c1snc(C(N)=O)c1N` (stereo not drawn), the Potency was active: 6.57 µM. For `CC1CN(c2ccc([N+](=O)[O-])c(NCCOc3ccccc3)c2)CCN1` (stereo not drawn), the Potency was inconclusive [inhibitor, single point].

— PubChem BioAssay AID504832 (National Center for Advancing Translational Sciences (NCATS), 2011)
Potency means the concentration at half of the fitted maximal effect; tags describe the fitted curve by direction and shape.
